{
  "source": "the supplement of paper PMC8728848",
  "binders": {"B1": {"name": "Epa23 (Candida glabrata) (protein)", "chain": "MGSSHHHHHHSSGLVPRGSHMIPNPFEGTINNFPSGCSPNHGLYNRGLTMELYNYSYIHPQSIQSYFNTSTLKKMEKGQCWDPSYLDVNYPRTGYKTHNRFAKVNGIDGILDFEFNPTRSCVPSKGQLPQNYNYPLQFTLSNFTMLLYGYFKPKVTAKHTFTIFADDLLFLNFGAGNAFDCCQQQDTIDDFGNYQAYALWGSDTQQNTLTVNLDANIYYPIRMFYNNRDFKGALNMYFTTDESNTKINDFSGYLFNIPDSSEGCPAHISYETECGNVSG"}},
  "test_in_all_cases": "glycan array binding signal (z-score within array); higher = stronger binding",
  "conditions_in_all_cases": "glycan notation: IUPAC condensed, linker removed",
  "key": {"[1]": {"target": "Man(a1-2)Man(a1-3)[Man(a1-2)Man(a1-6)]Man", "method_in_brief": "(§1)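 The Consortium for Functional Glycomics database supplied 3228 glycan arrays, of which those lacking an available protein sequence were dropped. The binding signal, a within-array Z-score, was averaged across arrays of the same protein sequence and across linkers. Negative scores can be read as non-binding.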"}, "[2]": {"target": "Man(a1-2)Man(a1-3)[Man(a1-2)Man(a1-6)]Man(a1-6)[Man(a1-2)Man(a1-2)Man(a1-3)]Man", "method_in_brief": "as §1"}, "[3]": {"target": "Man(a1-2)Man(a1-3)[Man(a1-2)Man(a1-6)]Man(a1-6)[Man(a1-2)Man(a1-2)Man(a1-3)]Man(b1-4)GlcNAc(b1-4)GlcNAc", "method_in_brief": "as §1"}, "[4]": {"target": "Man(a1-2)Man(a1-3)[Man(a1-6)]Man(a1-6)[Man(a1-2)Man(a1-3)]Man(b1-4)GlcNAc(b1-4)GlcNAc", "method_in_brief": "as §1"}, "[5]": {"target": "Man(a1-2)Man(a1-6)[Man(a1-3)]Man(a1-6)[Man(a1-2)Man(a1-2)Man(a1-3)]Man", "method_in_brief": "as §1"}, "[6]": {"target": "Man(a1-2)Man(a1-6)[Man(a1-3)]Man(a1-6)[Man(a1-2)Man(a1-2)Man(a1-3)]Man(b1-4)GlcNAc(b1-4)GlcNAc", "method_in_brief": "as §1"}, "[7]": {"target": "Man(a1-3)[Man(a1-6)]Man", "method_in_brief": "as §1"}, "[8]": {"target": "Man(a1-3)[Man(a1-6)]Man(a1-6)[Man(a1-2)Man(a1-3)]Man(b1-4)GlcNAc(b1-4)GlcNAc", "method_in_brief": "as §1"}, "[9]": {"target": "Man(a1-3)[Man(a1-6)]Man(a1-6)[Man(a1-3)]Man", "method_in_brief": "as §1"}, "[10]": {"target": "Man(a1-3)[Man(a1-6)]Man(a1-6)[Man(a1-3)]Man(b1-4)GlcNAc(b1-4)GlcNAc", "method_in_brief": "as §1"}, "[11]": {"target": "Man(a1-3)[Man(a1-6)]Man(b1-4)GlcNAc(b1-4)GlcNAc", "method_in_brief": "as §1"}, "[12]": {"target": "Man(a1-3)[Man(a1-6)]Man(b1-4)GlcNAc(b1-4)[Fuc(a1-6)]GlcNAc", "method_in_brief": "as §1"}, "[13]": {"target": "Man(a1-6)Man", "method_in_brief": "as §1"}, "[14]": {"target": "Man(b1-4)GlcNAc", "method_in_brief": "as §1"}, "[15]": {"target": "MurNAc(b1-4)GlcNAc", "method_in_brief": "as §1"}, "[16]": {"target": "Neu5Ac(a2-3)Gal", "method_in_brief": "as §1"}, "[17]": {"target": "Neu5Ac(a2-3)Gal(b1-3)GalNAc", "method_in_brief": "as §1"}, "[18]": {"target": "Neu5Ac(a2-3)Gal(b1-3)GalNAc(b1-3)Gal(a1-4)Gal(b1-4)Glc", "method_in_brief": "as §1"}, "[19]": {"target": "Neu5Ac(a2-3)Gal(b1-3)GalNAc(b1-4)[Neu5Ac(a2-3)]Gal(b1-4)Glc", "method_in_brief": "as §1"}, "[20]": {"target": "Neu5Ac(a2-3)Gal(b1-3)GalNAc(b1-4)[Neu5Ac(a2-8)Neu5Ac(a2-3)]Gal(b1-4)Glc", "method_in_brief": "as §1"}, "[21]": {"target": "Neu5Ac(a2-3)Gal(b1-3)GalNAc6S", "method_in_brief": "as §1"}, "[22]": {"target": "Neu5Ac(a2-3)Gal(b1-3)GlcNAc", "method_in_brief": "as §1"}, "[23]": {"target": "Neu5Ac(a2-3)Gal(b1-3)GlcNAc(b1-2)Man", "method_in_brief": "as §1"}, "[24]": {"target": "Neu5Ac(a2-3)Gal(b1-3)GlcNAc(b1-2)Man(a1-3)[GlcNAc(b1-4)][Neu5Ac(a2-3)Gal(b1-3)GlcNAc(b1-2)Man(a1-6)]Man(b1-4)GlcNAc(b1-4)GlcNAc", "method_in_brief": "as §1"}, "[25]": {"target": "Neu5Ac(a2-3)Gal(b1-3)GlcNAc(b1-2)Man(a1-3)[Neu5Ac(a2-3)Gal(b1-3)GlcNAc(b1-2)Man(a1-6)]Man(b1-4)GlcNAc(b1-4)GlcNAc", "method_in_brief": "as §1"}, "[26]": {"target": "Neu5Ac(a2-3)Gal(b1-3)GlcNAc(b1-2)[Neu5Ac(a2-3)Gal(b1-3)GlcNAc(b1-4)]Man(a1-6)[Neu5Ac(a2-3)Gal(b1-3)GlcNAc(b1-2)Man(a1-3)]Man(b1-4)GlcNAc(b1-4)GlcNAc", "method_in_brief": "as §1"}, "[27]": {"target": "Neu5Ac(a2-3)Gal(b1-3)GlcNAc(b1-3)Gal(b1-3)GlcNAc", "method_in_brief": "as §1"}, "[28]": {"target": "Neu5Ac(a2-3)Gal(b1-3)GlcNAc(b1-3)Gal(b1-4)GlcNAc", "method_in_brief": "as §1"}, "[29]": {"target": "Neu5Ac(a2-3)Gal(b1-3)GlcNAc(b1-3)GalNAc", "method_in_brief": "as §1"}, "[30]": {"target": "Neu5Ac(a2-3)Gal(b1-3)GlcNAc(b1-4)Gal(b1-4)Glc", "method_in_brief": "as §1"}, "[31]": {"target": "Neu5Ac(a2-3)Gal(b1-3)GlcNAc(b1-6)GalNAc", "method_in_brief": "as §1"}, "[32]": {"target": "Neu5Ac(a2-3)Gal(b1-3)GlcNAc6S", "method_in_brief": "as §1"}, "[33]": {"target": "Neu5Ac(a2-3)Gal(b1-3)[Fuc(a1-4)]GlcNAc", "method_in_brief": "as §1"}, "[34]": {"target": "Neu5Ac(a2-3)Gal(b1-3)[Fuc(a1-4)]GlcNAc(b1-3)Gal(b1-3)[Fuc(a1-4)]GlcNAc", "method_in_brief": "as §1"}, "[35]": {"target": "Neu5Ac(a2-3)Gal(b1-3)[Fuc(a1-4)]GlcNAc(b1-3)Gal(b1-4)[Fuc(a1-3)]GlcNAc", "method_in_brief": "as §1"}, "[36]": {"target": "Neu5Ac(a2-3)Gal(b1-3)[GlcNAc(b1-6)]GalNAc", "method_in_brief": "as §1"}, "[37]": {"target": "Neu5Ac(a2-3)Gal(b1-3)[Neu5Ac(a2-6)]GalNAc", "method_in_brief": "as §1"}},
  "note": "This is one part of the list.",
  "data": [
    {"binder": "B1", "values": [
      {"measurement": "glycan array binding signal (z-score)", "setting": "[1]", "result": -0.268},
      {"measurement": "glycan array binding signal (z-score)", "setting": "[2]", "result": -0.233},
      {"measurement": "glycan array binding signal (z-score)", "setting": "[3]", "result": -0.196},
      {"measurement": "glycan array binding signal (z-score)", "setting": "[4]", "result": -0.258},
      {"measurement": "glycan array binding signal (z-score)", "setting": "[5]", "result": -0.27},
      {"measurement": "glycan array binding signal (z-score)", "setting": "[6]", "result": -0.219},
      {"measurement": "glycan array binding signal (z-score)", "setting": "[7]", "result": -0.123},
      {"measurement": "glycan array binding signal (z-score)", "setting": "[8]", "result": -0.22},
      {"measurement": "glycan array binding signal (z-score)", "setting": "[9]", "result": -0.232},
      {"measurement": "glycan array binding signal (z-score)", "setting": "[10]", "result": -0.21},
      {"measurement": "glycan array binding signal (z-score)", "setting": "[11]", "result": -0.225},
      {"measurement": "glycan array binding signal (z-score)", "setting": "[12]", "result": -0.198},
      {"measurement": "glycan array binding signal (z-score)", "setting": "[13]", "result": -0.207},
      {"measurement": "glycan array binding signal (z-score)", "setting": "[14]", "result": -0.172},
      {"measurement": "glycan array binding signal (z-score)", "setting": "[15]", "result": -0.274},
      {"measurement": "glycan array binding signal (z-score)", "setting": "[16]", "result": -0.238},
      {"measurement": "glycan array binding signal (z-score)", "setting": "[17]", "result": -0.185},
      {"measurement": "glycan array binding signal (z-score)", "setting": "[18]", "result": -0.203},
      {"measurement": "glycan array binding signal (z-score)", "setting": "[19]", "result": -0.24},
      {"measurement": "glycan array binding signal (z-score)", "setting": "[20]", "result": -0.238},
      {"measurement": "glycan array binding signal (z-score)", "setting": "[21]", "result": -0.246},
      {"measurement": "glycan array binding signal (z-score)", "setting": "[22]", "result": -0.163},
      {"measurement": "glycan array binding signal (z-score)", "setting": "[23]", "result": -0.265},
      {"measurement": "glycan array binding signal (z-score)", "setting": "[24]", "result": -0.083},
      {"measurement": "glycan array binding signal (z-score)", "setting": "[25]", "result": -0.212},
      {"measurement": "glycan array binding signal (z-score)", "setting": "[26]", "result": -0.189},
      {"measurement": "glycan array binding signal (z-score)", "setting": "[27]", "result": -0.262},
      {"measurement": "glycan array binding signal (z-score)", "setting": "[28]", "result": -0.265},
      {"measurement": "glycan array binding signal (z-score)", "setting": "[29]", "result": -0.227},
      {"measurement": "glycan array binding signal (z-score)", "setting": "[30]", "result": -0.225},
      {"measurement": "glycan array binding signal (z-score)", "setting": "[31]", "result": -0.214},
      {"measurement": "glycan array binding signal (z-score)", "setting": "[32]", "result": -0.187},
      {"measurement": "glycan array binding signal (z-score)", "setting": "[33]", "result": -0.296},
      {"measurement": "glycan array binding signal (z-score)", "setting": "[34]", "result": -0.255},
      {"measurement": "glycan array binding signal (z-score)", "setting": "[35]", "result": -0.177},
      {"measurement": "glycan array binding signal (z-score)", "setting": "[36]", "result": -0.257},
      {"measurement": "glycan array binding signal (z-score)", "setting": "[37]", "result": -0.205}
    ]}
  ]
}
